Here are results for 1 molecule from publication PMC9363500 (2022).

This assay concerns the target 6×His–PYK2 KFL_([…]) (human, fluorescent label from the NanoTemper His-tag labelling kit (MST, fluorescence anisotropy); 13C,15N or 15N labelling (NMR)). The experiment in a line: MST; 1 mM EGTA.

B1: PYK2 FERM–kinase (domain or fragment)
chain: not shown
B1: the Kd – broadly, the concentration at which binding is half-saturated – came to 1170 nM.
